Source: PubChem BioAssay (NCATS)
The shares of active, inactive and inconclusive entries below differ from those in the screen. For some assays here: No potency is given beside an inconclusive call; the fits are too rough. Activity calls are given as the source filed them. Unless noted, calls come from the whole dose curve; as a rule, active = well fitted curve in the direction sought with a large enough effect; inconclusive = small, poorly fitted or top-dose-only effect, or another doubt; inactive = no such curve, though single readings can be large; an effect the other way counts as inactive or inconclusive.

Experiments:
[1] = qHTS of pediatric cancer cell lines to identify multiple opportunities for drug repurposing: Primary screen for A673 cells (AID 1347092); conditions: A673 Ewing sarcoma viability, CellTiter-Glo ATP luminescence, 48 h; activity change, negative = cytotoxic: at 46 µM (top of the series); note: nearly all actives have a fitted effect of over 45% in size
In short: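 Titration-based qHTS on A673 cells: MIPE compounds spanned 11 points (0.78 nM to 46 µM final), NPC compounds 8 points (0.59 nM to 46 µM final). Viability after 48 h was measured by ATP luminescence.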

[2] = qHTS of pediatric cancer cell lines to identify multiple opportunities for drug repurposing: Primary screen for SK-N-MC cells (AID 1347093); conditions: SK-N-MC viability, CellTiter-Glo luminescence, 48 h; activity change, negative = cytotoxic: at 46 µM (top of the series)
In short: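 Metabolically active cells were quantified by ATP-dependent luminescence (CellTiter-Glo, 15 min at room temperature) following 48 h treatment. Cells had been plated at 500-1,000 per well and settled for 5 h beforehand.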

[3] = test system: Zika virus NS2B-NS3 protease; assay: Primary screen GU AMC qHTS for Zika virus inhibitors (AID 1347154); note: potency is the fitted concentration of half-maximal effect; nearly all actives have a fitted effect of over 70% in size
In short: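 Unlinked Zika NS2B hydrophilic domain/NS3 protease domain noncovalent complex (25 nM final) in 10 mM Tris-HCl pH 8.0, 0.01% Tween 20, with AMC peptide substrate. Fluorescence (ex 340, em 450 nm) change over 15 min, room temperature; percent inhibition fitted to 4-parameter Hill equation.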

[4] = Primary qHTS for small molecule stabilizers of the endoplasmic reticulum resident proteome: Secreted ER Calcium Modulated Protein (SERCaMP) assay (AID 1508630); conditions: SH-SY5Y GLuc-SERCaMP (Gaussia luciferase released on ER calcium loss) secretion, thapsigargin, luminescence; activity change, negative = inhibition: at 38.4 µM (top of the series) unless noted; note: potency is the fitted concentration of half-maximal effect
In short: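 The SH-SY5Y reporter protocol was run at 3 concentrations up to 38.3 uM (primary) or 11 concentrations (follow-up): 16 h compound, 100 nM thapsigargin for 4 h, then extracellular luciferase luminescence.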

[5] = target: Cytochrome P450 2C9 (Homo sapiens) (UniProt P11712); assay: Cytochrome P450 family 2 subfamily C member 9 (CYP2C9) small molecule antagonists: luciferase biochemical (cell-free) qHTS assay (AID 1645842; active = well fitted curve in the direction sought with a large enough effect in the repeat runs; inconclusive = weak or mixed curves; inactive = no such curve, though single readings can be large; an effect the other way counts as inactive or inconclusive; note: nearly all actives have a fitted effect of over 55% in size)
In short: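 P450-Glo CYP2C9 system: proluciferin substrate with enzyme in mix containing 0.4% BSA, 10 min at room temperature, then NADPH regeneration solution added and incubated 1 h at 37C. Detection reagent stopped reaction; luminescence read after 20 min as RLU.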

OV90 = assay: Primary qHTS to identify gynecologic anti-cancer compounds using libraries of approved drugs and bioactive compounds (AID 1345084); conditions: Gynecologic cancer cell panel viability, ATPlite luminescence, 48 h; series mostly up to 57.5 µM; note: nearly all actives have a fitted effect of over 55% in size
In short: (§1)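 Five-point cytotoxicity, 48 h drug exposure at 37 C, 5% CO2, on cells seeded 16 h beforehand. ATP content read by ATPlite luminescence.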

Tov-21-G = assay: as above; conditions: Gynecologic cancer cell panel viability, ATPlite luminescence, 48 h; series mostly up to 57.5 µM
In short: as §1

[6] = Primary fluorescence-based thiol-reactive (MSTI) qHTS assay for identification of artifact compounds. (AID 1845221);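 note: thiol-reactive compounds lower the probe fluorescence signal; nearly all actives have a fitted effect of over 65% in size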
In short: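 Thiol-reactive compounds detected by quenching of 4 uM MSTI fluorescence (525/598 nm) after 1 h room-temperature dark incubation in PBS pH 7.4, 2% DMSO. qHTS titration; percent inhibition Hill-fitted against Acetyl-MSTI/MSTI controls.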

SKOV3 = assay: Primary qHTS to identify gynecologic anti-cancer compounds using libraries of approved drugs and bioactive compounds (AID 1345084); conditions: Gynecologic cancer cell panel viability, ATPlite luminescence, 48 h; series mostly up to 57.5 µM; note: nearly all actives have a fitted effect of over 55% in size
In short: as §1

[7] = test system: Zika virus NS2B-NS3 protease (unlinked complex); assay: Primary screen GU Rhodamine qHTS for Zika virus inhibitors: Unlinked NS2B-NS3 protease assay (AID 1347159); conditions: Recombinant ZIKV NS2B-NS3 protease, Rhodamine110 substrate fluorescence; activity change, negative = inhibition: at 107 µM (top of the series); note: potency is the fitted concentration of half-maximal effect; nearly all actives have a fitted effect of over 60% in size
In short: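 Enzyme 25 nM in Tris-HCl pH 8.0 + 0.01% Tween 20; compounds up to 114 microM, 15 min RT dark; + Rhod110 substrate 1.5 microM; read t0 and 15 min; delta fluorescence → % inhibition → 4-parameter Hill fit.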

[8] = target: Glutathione peroxidase 1 (Homo sapiens) (UniProt P07203); assay: Primary qHTS Assay for Inhibitors of Recombinant Selenoprotein Glutathione Peroxidase 1 (GPX1) (AID 1845191); note: potency is the fitted concentration of half-maximal effect; nearly all actives have a fitted effect of over 65% in size
In short: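 GPX1 10 nM, GR 100 nM, GSH 1 mM, NADPH 0.5 mM, CHP 0.5 mM (final). 30-min cpd preincubation, RT. Ex340/Em450 read t=0, t=15 min.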
Tags give direction and shape of the fitted curve.

Sequence of UniProt P07203 (P07203 whole entry, looked up): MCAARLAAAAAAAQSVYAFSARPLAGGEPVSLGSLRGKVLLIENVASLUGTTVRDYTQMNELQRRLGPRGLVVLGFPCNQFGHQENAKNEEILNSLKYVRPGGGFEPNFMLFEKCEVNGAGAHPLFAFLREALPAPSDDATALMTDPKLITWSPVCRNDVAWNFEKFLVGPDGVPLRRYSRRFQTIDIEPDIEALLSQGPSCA
Sequence of UniProt P11712 (P11712 whole entry, looked up): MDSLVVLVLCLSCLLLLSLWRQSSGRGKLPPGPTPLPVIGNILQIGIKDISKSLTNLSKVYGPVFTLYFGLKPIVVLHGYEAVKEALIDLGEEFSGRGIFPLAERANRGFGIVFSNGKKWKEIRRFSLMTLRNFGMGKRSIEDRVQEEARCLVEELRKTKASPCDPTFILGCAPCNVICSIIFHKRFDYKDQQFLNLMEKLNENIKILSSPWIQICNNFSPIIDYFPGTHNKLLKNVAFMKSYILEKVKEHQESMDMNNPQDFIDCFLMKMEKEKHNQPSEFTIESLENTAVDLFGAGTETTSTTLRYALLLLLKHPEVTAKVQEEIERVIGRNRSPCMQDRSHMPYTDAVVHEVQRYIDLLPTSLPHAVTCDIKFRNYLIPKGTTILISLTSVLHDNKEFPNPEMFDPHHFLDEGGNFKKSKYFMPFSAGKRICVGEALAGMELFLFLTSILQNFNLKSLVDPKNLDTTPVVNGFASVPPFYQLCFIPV

CCn1ccc(NS(=O)(=O)c2ccc(N)cc2)nc1=O
Potency [1]: inactive | Potency [2]: inactive | Potency [3]: inconclusive [inhibitor, partial curve] | Potency [4]: inconclusive [inhibitor, full curve, poor fit] | Potency [5]: inactive | Potency (OV90): inactive | Potency (Tov-21-G): inactive

C[C@@H]1CC2OC(=O)C3=C2C(CCC3O)[C@@]12C[C@@H](c1ccoc1)OC2=O (some centres undefined)
Potency [6]: inactive | Potency (OV90): inactive | Potency (SKOV3): inactive

CC1C/C=C/C=C\CCCCC(O)C/C=C/C(=O)O1 (centres undefined)
Potency [7]: active: 17.8 µM | Potency [8]: inconclusive [inhibitor, single point] | Potency (OV90): inactive | Potency (SKOV3): inactive
